In paper PMC9911399, “Two distinct binding modes provide the RNA-binding protein RbFox with extraordinary sequence specificity”:
Positions count from the first letter of the chain named. The list shows a part of the results.

T1: RBFOX1 RRM RbFoxmut (Fox-RRM*) (Homo sapiens, UniProt Q9NWB1 109-208, R118D;E147R;N151S;E152T)
T1 sequence: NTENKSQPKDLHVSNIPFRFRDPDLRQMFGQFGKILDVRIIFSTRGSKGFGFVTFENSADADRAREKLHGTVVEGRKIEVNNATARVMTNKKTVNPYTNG

B1: UUUCUGG (DNA:RNA)
RNA: GGGAGACCGGAAUUCAGAUUGUCCUUUCUGGUUAAAUCCCGUCGUAGCCACCA
DNA 1: CAATCTGAATTCCGGTCTCCC
DNA 2: TGGTGGCTACGACGGGATT
B2: GAAGGCA (DNA:RNA)
RNA: GGGAGACCGGAAUUCAGAUUGUCCGAAGGCAUUAAAUCCCGUCGUAGCCACCA
DNA 1: CAATCTGAATTCCGGTCTCCC
DNA 2: TGGTGGCTACGACGGGATT
B3: UGCGUCA (DNA:RNA)
RNA: B2 RNA with G25U, A26G, A27C, G29U
DNA 1: CAATCTGAATTCCGGTCTCCC
DNA 2: TGGTGGCTACGACGGGATT
B4: UGUCGCC (DNA:RNA)
RNA: B1 RNA with U26G, U29G, G30C, G31C
DNA 1: CAATCTGAATTCCGGTCTCCC
DNA 2: TGGTGGCTACGACGGGATT
B5: AAUGGGA (DNA:RNA)
RNA: B2 RNA with G25A, A27U, C30G
DNA 1: CAATCTGAATTCCGGTCTCCC
DNA 2: TGGTGGCTACGACGGGATT
B6: UCACCGA (DNA:RNA)
RNA: B1 RNA with U26C, U27A, U29C, G31A
DNA 1: CAATCTGAATTCCGGTCTCCC
DNA 2: TGGTGGCTACGACGGGATT
B7: AUUUACA (DNA:RNA)
RNA: B2 RNA with G25A, A26U, A27U, G28U, G29A
DNA 1: CAATCTGAATTCCGGTCTCCC
DNA 2: TGGTGGCTACGACGGGATT
B8: GUGUACU (DNA:RNA)
RNA: B2 RNA with A26U, A27G, G28U, G29A, A31U
DNA 1: CAATCTGAATTCCGGTCTCCC
DNA 2: TGGTGGCTACGACGGGATT
B9: UACAGCC (DNA:RNA)
RNA: B2 RNA with G25U, A27C, G28A, A31C
DNA 1: CAATCTGAATTCCGGTCTCCC
DNA 2: TGGTGGCTACGACGGGATT
B10: CGUGACA (DNA:RNA)
RNA: B2 RNA with G25C, A26G, A27U, G29A
DNA 1: CAATCTGAATTCCGGTCTCCC
DNA 2: TGGTGGCTACGACGGGATT
B11: UCUAGGA (DNA:RNA)
RNA: B1 RNA with U26C, C28A, U29G, G31A
DNA 1: CAATCTGAATTCCGGTCTCCC
DNA 2: TGGTGGCTACGACGGGATT
B12: AGUCACG (DNA:RNA)
RNA: B1 RNA with U25A, U26G, U29A, G30C
DNA 1: CAATCTGAATTCCGGTCTCCC
DNA 2: TGGTGGCTACGACGGGATT
B13: GAGGGCG (DNA:RNA)
RNA: B2 RNA with A27G, A31G
DNA 1: CAATCTGAATTCCGGTCTCCC
DNA 2: TGGTGGCTACGACGGGATT
B14: GAAAUGA (DNA:RNA)
RNA: B2 RNA with G28A, G29U, C30G
DNA 1: CAATCTGAATTCCGGTCTCCC
DNA 2: TGGTGGCTACGACGGGATT
B15: GUGAGUC (DNA:RNA)
RNA: B2 RNA with A26U, A27G, G28A, C30U, A31C
DNA 1: CAATCTGAATTCCGGTCTCCC
DNA 2: TGGTGGCTACGACGGGATT
B16: UGCGGCA (DNA:RNA)
RNA: B2 RNA with G25U, A26G, A27C
DNA 1: CAATCTGAATTCCGGTCTCCC
DNA 2: TGGTGGCTACGACGGGATT
B17: CGGACUA (DNA:RNA)
RNA: B2 RNA with G25C, A26G, A27G, G28A, G29C, C30U
DNA 1: CAATCTGAATTCCGGTCTCCC
DNA 2: TGGTGGCTACGACGGGATT
B18: CGUUCGC (DNA:RNA)
RNA: B1 RNA with U25C, U26G, C28U, U29C, G31C
DNA 1: CAATCTGAATTCCGGTCTCCC
DNA 2: TGGTGGCTACGACGGGATT
B19: CGACUUA (DNA:RNA)
RNA: B2 RNA with G25C, A26G, G28C, G29U, C30U
DNA 1: CAATCTGAATTCCGGTCTCCC
DNA 2: TGGTGGCTACGACGGGATT
B20: CCGAUGG (DNA:RNA)
RNA: B1 RNA with U25C, U26C, U27G, C28A
DNA 1: CAATCTGAATTCCGGTCTCCC
DNA 2: TGGTGGCTACGACGGGATT

biological target: T1, RBFOX1 RRM RbFoxmut (Fox-RRM*); assay: EMSA; HiTS-Eq, 1 nM pool, 10 min; buffer printed only for the single-RNA assays: 10 mM Tris pH 7.5, 150 mM NaCl, 3.4 mM EDTA, 0.001% NP-40, 30 C; details: tags: His6 N-terminal (pET28a); label: 5' 32P
In short: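 A pool of RNA with 7 randomized nucleotides, 5′-radiolabelled and with DNA-annealed flanks, was equilibrated at 1 nM for 10 min in 50 µL with purified RbFox RRM, wild type or mutant, across increasing protein concentrations. Free RNA was separated by 8% native PAGE, excised, reverse-transcribed, barcoded by PCR and sequenced. Relative association constants were obtained from read-count changes of each RNA species versus the control reaction and normalised to the cognate motif.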

Binder | binding signal
B1 | 0.0692 KA relative to UGCAUGU
B2 | 0.104 KA relative to UGCAUGU
B3 | 0.155 KA relative to UGCAUGU
B4 | 0.138 KA relative to UGCAUGU
B5 | 0.0854 KA relative to UGCAUGU
B6 | 0.077 KA relative to UGCAUGU
B7 | 0.119 KA relative to UGCAUGU
B8 | 0.101 KA relative to UGCAUGU
B9 | 0.0958 KA relative to UGCAUGU
B10 | 0.0765 KA relative to UGCAUGU
B11 | 0.0664 KA relative to UGCAUGU
B12 | 0.0661 KA relative to UGCAUGU
B13 | 0.0994 KA relative to UGCAUGU
B14 | 0.0974 KA relative to UGCAUGU
B15 | 0.138 KA relative to UGCAUGU
B16 | 0.162 KA relative to UGCAUGU
B17 | 0.107 KA relative to UGCAUGU
B18 | 0.117 KA relative to UGCAUGU
B19 | 0.111 KA relative to UGCAUGU
B20 | 0.0944 KA relative to UGCAUGU
